In all, about 310,000 compounds went through this assay and about 14,000 (4.5%) showed an effect of 50% or more. The effect is printed as a negative number. The list shows a part of the results.
Biological target: human ether-à-go-go-related gene (hERG) potassium channel (human, UniProt Q12809)
Assay: primary screen, population patch clamp on CHO cells stably expressing hERG
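Note: peak tail current of the secondary pulse compared with the same well before compound.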

Sequence of human ether-à-go-go-related gene (hERG) potassium channel (Q12809 whole entry, looked up): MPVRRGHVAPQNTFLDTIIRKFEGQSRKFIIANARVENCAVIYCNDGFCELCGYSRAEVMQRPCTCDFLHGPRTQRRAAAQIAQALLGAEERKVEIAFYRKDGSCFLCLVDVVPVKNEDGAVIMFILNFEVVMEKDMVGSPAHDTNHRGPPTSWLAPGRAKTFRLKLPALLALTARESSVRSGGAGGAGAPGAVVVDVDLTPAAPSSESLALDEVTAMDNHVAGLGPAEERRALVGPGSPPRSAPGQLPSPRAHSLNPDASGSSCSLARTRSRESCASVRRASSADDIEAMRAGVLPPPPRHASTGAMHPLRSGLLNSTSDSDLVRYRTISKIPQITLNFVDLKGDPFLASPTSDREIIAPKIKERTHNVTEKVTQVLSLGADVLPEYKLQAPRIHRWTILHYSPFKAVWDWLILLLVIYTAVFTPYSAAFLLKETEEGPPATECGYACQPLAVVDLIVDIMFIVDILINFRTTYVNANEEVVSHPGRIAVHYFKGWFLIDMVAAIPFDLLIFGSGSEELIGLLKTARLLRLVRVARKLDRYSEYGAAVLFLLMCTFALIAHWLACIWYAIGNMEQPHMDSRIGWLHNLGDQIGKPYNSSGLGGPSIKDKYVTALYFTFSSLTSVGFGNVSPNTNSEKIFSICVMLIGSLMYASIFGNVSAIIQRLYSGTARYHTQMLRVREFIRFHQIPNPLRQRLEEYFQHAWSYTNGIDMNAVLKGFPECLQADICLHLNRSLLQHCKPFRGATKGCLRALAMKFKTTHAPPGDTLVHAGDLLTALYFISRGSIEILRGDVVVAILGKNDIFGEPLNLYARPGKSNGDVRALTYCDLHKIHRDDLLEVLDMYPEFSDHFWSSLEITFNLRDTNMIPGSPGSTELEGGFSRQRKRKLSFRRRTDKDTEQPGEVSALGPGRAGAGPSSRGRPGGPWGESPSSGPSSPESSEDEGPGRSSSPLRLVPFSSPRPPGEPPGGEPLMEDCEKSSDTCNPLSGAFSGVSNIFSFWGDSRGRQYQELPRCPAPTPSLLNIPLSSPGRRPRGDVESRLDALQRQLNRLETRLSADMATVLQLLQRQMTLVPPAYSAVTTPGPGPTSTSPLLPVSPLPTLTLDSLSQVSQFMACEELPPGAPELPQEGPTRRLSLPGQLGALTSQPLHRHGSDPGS

Row | Compound | hERG current change (%, negative = inhibition) at 10uM
1 | CCn1c(SCCC(=O)O)nnc1-c1cccnc1 | 4.65%
2 | COCC(C)NC(=O)C1CCN(S(=O)(=O)c2ccc3ccccc3c2)CC1 (centres unmarked) | -18.8%
3 | COC(=O)/C=C1/N/C(=N\c2nc(C)cc(C)n2)N(c2ccccc2)C1=O | 11.9%
4 | O=C(COc1ccc([N+](=O)[O-])cc1)NN=C1CCCC1 | -33.2%
5 | COc1ccccc1NS(=O)(=O)c1ccc(C(=O)NCC(c2ccccc2OC)N(C)C)cc1 (centres unmarked) | -0.121%
6 | Cc1ccc(-n2cc(CCCCCCCCC(=O)O)nn2)cc1 | -12.3%
7 | Cc1ccc(NC(=O)COC(=O)[C@H](C)N2C(=O)C3CC=CCC3C2=O)cc1S(=O)(=O)N(C)C (some centres unmarked) | -7.63%
8 | CCOC(=O)c1cccc(NC(=O)C2CCN(S(=O)(=O)c3cccs3)CC2)c1 | -27.9%
9 | Nc1cc(C(=O)OCC(=O)NCCNC(=O)COC(=O)c2ccc(Cl)c(N)c2)ccc1Cl | 5.57%
10 | COCCNC(=O)c1ccccc1-c1nc(-c2ccccc2OC)no1 | -0.723%
11 | CC(C)(C)CC(=O)Nc1ccccc1N1CCN(c2ccccc2)CC1 | -10.1%
12 | O=C(c1ccc2nccnc2c1)N1CCCC(N2CCN(c3ccc(F)cc3)CC2)C1 (centres unmarked) | -9.66%
13 | Cc1cc(OC(C)C(=O)NCCc2c[nH]c3ccccc23)c2c(C)cc(=O)oc2c1 (centres unmarked) | -26.9%
14 | CN(Cc1ccccc1)C(=O)c1[nH]cnc1C(=O)Nc1ccccc1 | 13.5%
15 | Cc1nnc(SC(C)C(=O)Nc2ncc(Cl)cc2Cl)n1Cc1ccccc1 (centres unmarked) | -67.8%
16 | CCn1c(CNc2cccc(C(F)(F)F)c2)n[nH]c1=S | 16.6%
17 | Cc1cccc(C(=O)N/N=C/c2ccc(OC3CSC3)cc2)c1 | -92.4%
18 | CCN(C(=O)CSc1nc2nc(C)cc(C)n2n1)c1cccc(C)c1 | -0.467%
19 | Cc1nc2cc(F)ccc2n1C1CCN(S(=O)(=O)c2ccccc2)CC1 | -48.6%
20 | Cc1cc(C)c2cc(C(=O)N3CCC(N4CCCCC4)CC3)[nH]c2c1 | -69.2%
21 | Nc1nnc(SCC(=O)c2ccc3ccccc3c2)s1 | 1.25%
22 | COC(=O)C1=CN(Cc2ccccc2)C=C(C(=O)OC)C1c1cc(F)ccc1F | -12.6%
23 | Cc1cccc(N(C(=O)c2sc(C)nc2C)C(C(=O)NCc2ccco2)c2ccccc2)c1 (centres unmarked) | -4.88%

Row | Compound | hERG current change (%, negative = inhibition) at 10uM
24 | CC(=O)NCCC1CCN(c2nc3nonc3nc2N(C)Cc2ccccc2)CC1 | -49%
25 | C/C=C/C=C/C(=O)OCC(=O)Nc1ccc(Cl)cc1 | 21.3%
26 | Cn1nccc1C(=O)N1CCc2ccccc21 | 0.827%
27 | OCC[C@@H]1C[C@H](O)[C@@H](O)[C@@]2(Cc3ccccc3CO2)O1 | 9.18%
28 | CCc1cc(=O)[nH]c(SCCCF)n1 | -50.2%
29 | COc1cccc(CN2CCC(CO)(CC3CCCCO3)CC2)c1 (centres unmarked) | 1.32%
30 | CCCCc1c(O)nc(SC2CC(=O)N(c3ccc(C(=O)OCC)cc3)C2=O)[nH]c1=O (centres unmarked) | 0.334%
31 | O=C1CSC(c2cn(-c3ccccc3)nc2-c2cccs2)N1CC1CCCO1 (centres unmarked) | -17.9%
32 | COc1ccc2c(-c3ccccc3)cc(SCC(N)=O)nc2c1 | 4.04%
33 | Cn1c2ccccc2c2cnn(CC(=O)O)c(=O)c21 | 13.4%
34 | CC(NC(=O)c1ccc(Cl)c(Cl)c1)c1ccc(-c2ccccc2)cc1 (centres unmarked) | 17.6%
35 | COc1ccccc1N1CCN(C2CCCN(C(=O)c3csc(C)n3)C2)CC1 (centres unmarked) | -9.96%
36 | N#Cc1nc(-c2ccco2)oc1NCCCn1ccnc1 | -19.7%
37 | Cc1ccc(NS(=O)(=O)c2ccc(CCC(=O)NCc3ccccn3)cc2)cc1 | 13%
38 | O=C(Oc1ccc2c(c1)O/C(=C\c1ccncc1)C2=O)c1cccs1 | -2.41%
39 | O=C(Nc1ccc(Cl)c(Cl)c1)c1ccccc1NC(=O)C1CC=CCC1C(=O)O (centres unmarked) | 1.71%
40 | O=C(/C=C/c1ccc(Cl)c(Cl)c1)NCCCn1ccnc1 | -41.7%
41 | COc1ccc(C(=O)NCc2nnc(SCC(=O)Nc3nnc(C)s3)o2)cc1OC | -5.52%
42 | CCN1CCN(S(=O)(=O)c2ccc(Cl)c(C(=O)NCc3ccco3)c2)CC1 | -1.33%
43 | Cc1ccc(C)c(NC(=S)NNc2ccc(F)cc2F)c1 | 5.57%
44 | CCc1c(C)nc(N2CCN(Cc3ccc4c(c3)OCO4)CC2)[nH]c1=O | 5.17%
45 | Cc1cccc(NC(=O)c2cc(=O)c3ccccc3o2)n1 | -17.6%
46 | O=C(Nc1ccccc1)Nc1nc(-c2ccc(Cl)cc2)cs1 | 20.5%

Row | Compound | hERG current change (%, negative = inhibition) at 10uM
47 | C#CCOCCOCCOCCNc1nc(N2CCOCC2)nc(N2CCN(C(=O)CCCCCCCCCCNC(=O)[C@H](CO)n3cc(CCCSC)nn3)CC2)n1 | -0.214%
48 | CN(CC(=O)Nc1ccc(Cl)cc1)C(=O)CCc1ccccc1 | 5.55%
49 | O=C(COc1ccccc1Cc1ccccc1)Nc1cccc(S(=O)(=O)N2CCOCC2)c1 | -3.73%
50 | CCCCc1nc2cc(C(=O)N3CCCC(OCCC)C3)ccc2o1 (centres unmarked) | 9.53%
51 | CC(C)NC(=O)c1ccc(CN2CCC(Cc3ccccc3)CC2)cc1 | -37.2%
52 | CC(=O)c1ccc([N+](=O)[O-])cc1 | 15.7%
53 | Cc1cc2nc(C3CCCN(C(=O)NCc4ccccc4)C3)[nH]c2cc1C (centres unmarked) | -45.7%
54 | Cc1ccc(N2CN(CCc3ccccc3)CNC2=S)cc1 | 11.6%
55 | Cc1sc(N)nc1-c1ccc(Oc2ccccc2)cc1 | 5.92%
56 | COc1cc2[nH]c(=O)n(CCCCCC(=O)N3CC=C(c4ccccc4)CC3)c(=O)c2cc1OC | -20%
57 | Cc1cc([N+](=O)[O-])nn1CCCC(=O)Nc1cccnc1Cl | 11.4%
58 | CC(=O)N(c1cccc(Cl)c1)c1nc(C)cc(C)c1C#N | 9.28%
59 | Cc1cc(C)nc(SCCS(=O)Cc2ccc(Cl)cc2)n1 (centres unmarked) | 2.89%
60 | O=C(COC(=O)c1ccccc1Cl)Nc1nccs1 | 13.9%
61 | O=C(CSc1nc2ccccc2o1)Nc1cc(C(F)(F)F)ccc1N1CCOCC1 | -7.46%
62 | Cc1ccc(-c2csc(C(C#N)=C3CCCC3)n2)cc1 | 4.11%
63 | OCCNc1c2c(nc3ccccc13)CCCC2 | -39%
64 | O=C(Nc1cccc(NC(=O)c2ccc([N+](=O)[O-])o2)c1)c1ccco1 | 9.11%
65 | C=CCC(=O)NC1CC(C)(C)Cc2c1cnn2-c1ccc(C)cc1 (centres unmarked) | -69.7%
66 | CCCn1c(NC(=O)C2CCN(C(=O)c3ccccc3C)CC2)nc2ccccc21 | -16%
67 | O=C(CSCc1nc2ccccc2[nH]1)Nc1ccccc1 | 8.41%
68 | O=C(N1CCOCC1)C12CC3CC(C1)CC(C(=O)N1CCOCC1)(C3)C2 | 2.89%
69 | CCOC(=O)c1nn(-c2ccc(C)c(Cl)c2)c(=O)c(C#N)c1C | 10.8%

Row | Compound | hERG current change (%, negative = inhibition) at 10uM
70 | COc1ccc(CN2CCNC(=O)C2CC(=O)NC2CCCCCCC2)cc1C (centres unmarked) | 15.8%
71 | Cc1ccc(S(=O)(=O)Nc2nc3ccccc3nc2NCC2CCCO2)c(C)c1 (centres unmarked) | 2.84%
72 | COc1ccccc1N1CCN(CCCCOc2ccc(F)cc2)CC1.Cl | -72.8%
73 | Cn1c(=O)oc2cc(C(=O)c3ccccc3)ccc21 | -7.43%
74 | COc1cccc(C(=O)NC2CCCc3ccccc32)c1 (centres unmarked) | 2.71%
75 | O=S(=O)(Nc1cccc(-c2ccc(N3CCCCCC3)nn2)c1)c1ccc(F)cc1 | 13.7%
76 | Cl.O=C(NCCCN1CCOCC1)c1coc2ccccc2c1=O | -0.609%
77 | COCCCNC(=O)CCc1nnc(Cc2ccc(-c3ccccc3)cc2)o1 | 3.02%
78 | O=C(NCC(c1ccco1)N1CCc2ccccc2C1)c1cccc(Br)c1 (centres unmarked) | -5.34%
79 | CCOC(=O)C1CCCN(C(=S)NC(=O)/C=C/c2ccc(F)cc2)C1 (centres unmarked) | 0.886%
80 | CCCCn1c(-c2ccncc2)nc2c1c(=O)[nH]c(=O)n2CC(C)C | 5.44%
81 | COc1ccc(N=C2SC(CC(=O)Nc3ccc(OC)cc3OC)C(=O)N2C)cc1 (centres unmarked) | -10.5%
82 | COc1cccc(C(C#N)N2CCCCC2)c1O (centres unmarked) | -2.29%
83 | CCCC(=O)N(C)C1=Nc2ccc(Cl)cc2C(c2ccccc2)=[N+]([O-])C1 | 9.83%
84 | CC(=O)Nc1ccc(C(=O)OCC(=O)N(c2ccccc2)C2CCS(=O)(=O)C2)cc1 (centres unmarked) | 9.51%
85 | COc1ccc2oc(C)c(C(=O)NN)c2c1 | -1.4%
86 | COc1ccc(C2N(C(=O)C(F)(F)F)C(C)CN2S(=O)(=O)c2ccc(C)cc2)cc1 (centres unmarked) | 11.2%
87 | CC(=O)Nc1nc(C)c(C(C)(C)C)s1 | -4.84%
88 | CCOc1ccccc1NC(=O)NNC(=O)COc1cccc(C)c1C | -4.61%
89 | Cc1nnc2ccc(N3CCN(c4ccccn4)CC3)nn12 | -57%

From paper PMC4336329 (PLoS ONE, 2015)
